Hit rate of the full screen: of about 310,000 compounds, about 2,200 (0.71%) showed an effect of 50% or more. The effect is printed as a negative number. Some of the results follow.

This experiment deals with human ether-à-go-go-related gene (hERG) potassium channel (human, UniProt Q12809). Nature of the experiment: primary screen, population patch clamp on CHO cells stably expressing hERG.
human ether-à-go-go-related gene (hERG) potassium channel, sequence (Q12809 whole entry, looked up): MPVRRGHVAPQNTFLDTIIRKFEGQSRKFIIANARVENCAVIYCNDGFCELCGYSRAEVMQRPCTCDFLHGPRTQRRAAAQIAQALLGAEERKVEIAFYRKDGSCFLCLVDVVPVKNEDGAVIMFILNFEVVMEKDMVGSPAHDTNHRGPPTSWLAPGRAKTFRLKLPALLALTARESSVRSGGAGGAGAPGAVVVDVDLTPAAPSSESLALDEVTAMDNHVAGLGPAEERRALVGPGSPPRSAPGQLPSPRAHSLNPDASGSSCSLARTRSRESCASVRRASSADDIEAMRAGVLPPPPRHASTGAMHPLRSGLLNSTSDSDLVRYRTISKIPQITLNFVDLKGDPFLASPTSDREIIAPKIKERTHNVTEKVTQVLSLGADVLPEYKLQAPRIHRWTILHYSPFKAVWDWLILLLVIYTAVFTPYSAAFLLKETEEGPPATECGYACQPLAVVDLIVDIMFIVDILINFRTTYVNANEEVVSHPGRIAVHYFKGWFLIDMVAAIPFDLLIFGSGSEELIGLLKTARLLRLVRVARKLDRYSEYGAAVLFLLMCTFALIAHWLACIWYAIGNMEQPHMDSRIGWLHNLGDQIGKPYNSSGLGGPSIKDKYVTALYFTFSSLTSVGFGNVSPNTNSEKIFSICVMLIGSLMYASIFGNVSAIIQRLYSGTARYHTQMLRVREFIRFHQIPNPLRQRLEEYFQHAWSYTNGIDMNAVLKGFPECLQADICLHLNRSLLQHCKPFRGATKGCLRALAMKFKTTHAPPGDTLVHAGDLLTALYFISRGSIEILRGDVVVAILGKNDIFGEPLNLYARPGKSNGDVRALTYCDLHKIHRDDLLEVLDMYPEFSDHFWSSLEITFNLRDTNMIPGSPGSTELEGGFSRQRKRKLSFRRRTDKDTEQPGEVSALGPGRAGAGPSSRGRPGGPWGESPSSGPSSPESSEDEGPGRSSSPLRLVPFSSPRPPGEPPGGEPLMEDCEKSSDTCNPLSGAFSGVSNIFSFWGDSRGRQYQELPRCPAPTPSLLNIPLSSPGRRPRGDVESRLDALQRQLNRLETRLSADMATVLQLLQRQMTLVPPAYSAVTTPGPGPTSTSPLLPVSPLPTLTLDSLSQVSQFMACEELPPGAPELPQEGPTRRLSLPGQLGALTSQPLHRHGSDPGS
With `Clc1ccc(/C=N/c2c(-c3ccco3)nc3ccccn23)cc1`, the “hERG current change (%, negative = inhibition) at 1uM” value was determined as 9.94%. The same measure for `COc1cc(-c2c(-c3ccc4c(c3)OCO4)noc2C)ccc1F`: 10%.

With `Cc1c(=O)n(OCc2ccccc2)c2ccccc2[n+]1[O-]`, the “hERG current change (%, negative = inhibition) at 1uM” value came to 9.46%. With `CC1CN(C(=O)c2cccc(S(=O)(=O)Nc3cc(Cl)ccc3Cl)c2)CC(C)O1` (centres unmarked), the “hERG current change (%, negative = inhibition) at 1uM” value is 6.75%. As for `Cc1ccc(NC(=O)C(C)OC(=O)c2n[nH]c3ccccc23)cc1` (centres unmarked), the figure is 7.35%; as for `Cn1cccc1C1C=C(c2ccc(C(C)(C)C)cc2)Nc2ncnn21` (centres unmarked), 1.34%. On to `O=C(Nc1ccc(F)c(F)c1)c1ccccc1`, for which the “hERG current change (%, negative = inhibition) at 1uM” value was 11.8%. With `CCOC(=O)C(NC(=O)CC)(Nc1ccc(S(=O)(=O)Nc2ncccn2)cc1)C(F)(F)F` (centres unmarked), the “hERG current change (%, negative = inhibition) at 1uM” value amounted to 20.3%. The same measure for `Cc1ccc(C(OCC(O)CNCc2ccc(F)cc2)c2ccccc2)cc1.O=C(O)C(=O)O` (centres unmarked): -75.4%; for `COc1cccc(C(=O)N(Cc2nc(-c3ccc(C)cc3)no2)C(C)C)c1`: 8.61%; for `O=C(C(=O)N1CCc2ccccc2C1)c1c[nH]c2ccccc12`: 11.1%.

As to `Cl.OC(COc1c(F)cc(Br)cc1F)CN1CCN(c2ccc(F)cc2)CC1` (centres unmarked), the “hERG current change (%, negative = inhibition) at 1uM” value was determined as 2.42%. The same measure for `NNC(=O)C1CC(O)CN1S(=O)(=O)c1ccc2ccccc2c1` (centres unmarked): 16.8%; for `O=C(CSc1n[nH]c(=O)n1-c1cccnc1)Nc1ccccc1`: 10.3%. As for `CCOC(=O)CSC(CC)C(=O)Nc1nnc(CC)s1` (centres unmarked), the figure is 3.34%. Consider `CC1(C)C=Cc2c(c3ccccc3[nH]c2=O)O1`, for which the “hERG current change (%, negative = inhibition) at 1uM” value is listed as -0.433%. Turning to `CCOc1ccccc1C(=O)N(CN1CCCC1=O)c1cccc(Cl)c1`, the “hERG current change (%, negative = inhibition) at 1uM” value stood at 10.9%. In the case of `Cc1ccc(S(=O)(=O)Nc2cc(Cl)c(O)cc2C)cc1`, the “hERG current change (%, negative = inhibition) at 1uM” value worked out at 1.11%. For the compound `Cc1ccc(C)n1-c1ccc(N2CCOCC2)cc1`, the “hERG current change (%, negative = inhibition) at 1uM” value was 0.619%. As for `S=C(NCc1ccc(Cl)cc1)Nc1ccncc1`, the figure is 7.06%.

For the compound `Cc1cc(NS(=O)(=O)c2ccc(CC(C)C)cc2)no1`, the “hERG current change (%, negative = inhibition) at 1uM” value was determined as 10.9%.

Consider `Cc1ccc(C(=O)NC2CC3CCCC(C2)N3C(=S)NCc2ccco2)cc1` (centres unmarked), for which the “hERG current change (%, negative = inhibition) at 1uM” value came to 5.13%. `COc1ccc(C(=O)COC(=O)c2ccc3c(c2)NC(=O)CS3)c(OC)c1`: the “hERG current change (%, negative = inhibition) at 1uM” value is recorded as -0.411%.

Regarding `O=C(NCc1cccnc1)c1cccc(S(=O)(=O)Nc2cccc(Cl)c2)c1`, the “hERG current change (%, negative = inhibition) at 1uM” value is listed as 4.29%. Consider `CC1C(c2cccs2)=[N+]([O-])C(C)(C(=O)c2ccc(F)cc2)N1O` (centres unmarked), for which the “hERG current change (%, negative = inhibition) at 1uM” value came to 14.4%. The same measure for `COc1ccccc1NC(=O)c1cc(S(=O)(=O)N2CCCCCC2)ccc1F`: 16.8%; for `O=S(=O)(Cc1ccccc1)N1CCN(C2Cc3ccccc3C2)CC1`: 5.02%; for `Clc1ccc2c(NCc3ccco3)ncnc2c1`: -1.55%. Consider `COc1cc(OC)c2c(c1)O[C@@H](c1ccc(OC)c(OC)c1)[C@H](O)C2`, for which the “hERG current change (%, negative = inhibition) at 1uM” value was determined as 13.2%. The same measure for `COc1ccccc1N1CCN(C(=O)COc2cccc(C)c2C)CC1`: 2.97%; for `O=C(Nc1cccc(C(F)(F)F)c1)N1CCC(c2nc(-c3ccc(F)cc3)no2)CC1`: 2.11%; for `O=C(Nc1ccc(C(F)(F)F)cc1)c1cc(-c2cccnc2)nc2ccc(Br)cc12`: -15.5%. As for `CN(C(=O)CN(C)S(=O)(=O)c1ccc(F)cc1)c1c(N)n(Cc2ccccc2)c(=O)[nH]c1=O`, the “hERG current change (%, negative = inhibition) at 1uM” value is recorded as -4.29%. On to `O=C(c1cc2ccccc2cc1O)N1CCN(c2ccc([N+](=O)[O-])cc2)CC1`, for which the “hERG current change (%, negative = inhibition) at 1uM” value is recorded as -15.1%. In the case of `CSc1nc(=S)cc(C)[nH]1`, the “hERG current change (%, negative = inhibition) at 1uM” value was 8.94%. As to `CCCCOc1ccc(S(=O)(=O)NC(=O)NCc2ccc(OCCC)cc2)cc1`, the “hERG current change (%, negative = inhibition) at 1uM” value is reported as 8.73%. As for `CCCCn1c(=O)[nH]c(=O)c2c(C(=O)OCC)cc(-c3ccc(OC(F)F)cc3)nc21`, the figure is 11.4%; as for `COc1ccc(NC(=O)C2CCCN2C(=O)Nc2cccc(F)c2)cc1` (centres unmarked), 5.88%.

On to `CN(C)C(=O)COC(=O)c1cccc(CN2C(=O)c3ccccc3C2=O)c1`, for which the “hERG current change (%, negative = inhibition) at 1uM” value came to 16.5%.

As to `Cc1cc(OC(C)C(=O)NCc2ccccn2)c2c(C)cc(=O)oc2c1` (centres unmarked), the “hERG current change (%, negative = inhibition) at 1uM” value was found to be 16.2%.

On to `COc1ccccc1C(=O)Nc1ccnn1C1CCN(C/C=C/c2ccccc2)CC1`, for which the “hERG current change (%, negative = inhibition) at 1uM” value is given as -85.6%. The same measure for `COc1ccccc1C(=O)NC(CCSC)C(=O)N1CCN(C(C)=O)CC1` (centres unmarked): 11.3%. Turning to `O=C(NCc1ccccn1)c1ccc(NS(=O)(=O)c2ccccc2)cc1`, the “hERG current change (%, negative = inhibition) at 1uM” value came out at 1.45%.

Turning to `CC(C)N(C(=O)CN1CCN(S(=O)(=O)c2ccc(Br)s2)CC1)C(C)C`, the “hERG current change (%, negative = inhibition) at 1uM” value is reported as 7.73%.

For the compound `O=C(OC(C(=O)c1c[nH]c2ccccc12)c1ccccc1)c1cnccn1` (centres unmarked), the “hERG current change (%, negative = inhibition) at 1uM” value is 11.8%. As for `COc1ccccc1NS(=O)(=O)c1cc(NC(=O)CCNC(C)=O)ccc1N1CCCCC1`, the figure is 7.37%; as for `COC(=O)c1sc2cnccc2c1N`, 10.7%.

`O=C(NCc1ccccc1C(F)(F)F)C1CCC(=O)N(CCCc2ccccc2)C1` (centres unmarked): the “hERG current change (%, negative = inhibition) at 1uM” value is on record as 7.23%. As for `COC(=O)c1cc(Br)c(=O)n(-c2ccccn2)c1`, the figure is 12.5%.

For the compound `CCOc1ccc(NC(=O)CN(C)C(=O)c2cc3c(s2)CCCCC3)cc1OCC`, the “hERG current change (%, negative = inhibition) at 1uM” value was 17.5%.

Regarding `Cc1ccc(NC(=O)CSc2nc3ccccc3c(=O)n2CCCN2CCCCC2)cc1Cl`, the “hERG current change (%, negative = inhibition) at 1uM” value is -29.6%.

As for `COc1ccc([C@H]2C=C3CN(C(=O)OC(C)(C)C)S(=O)(=O)[C@H]3C[C@H]2OC(=O)c2ccc(C(F)(F)F)cc2)cc1`, the “hERG current change (%, negative = inhibition) at 1uM” value is recorded as 9.57%. With `CCCn1nc(NC(=O)C2CCCO2)c2cc3cc(C)ccc3nc21` (centres unmarked), the “hERG current change (%, negative = inhibition) at 1uM” value is listed as 10.2%. For `COc1ccc(CNc2ccc(C)c(C)c2)cc1`, the “hERG current change (%, negative = inhibition) at 1uM” value worked out at 7.13%.

Consider `O=C(NCCN1CCN(C(=O)c2cccs2)CC1)c1cccs1`, for which the “hERG current change (%, negative = inhibition) at 1uM” value was -8.64%. For the compound `CCN1CCN(c2ccc(NC(=O)c3cc(S(=O)(=O)N4CCCC4)ccc3Cl)cc2)CC1`, the “hERG current change (%, negative = inhibition) at 1uM” value is listed as -10.2%.

(Values after publication PMC4336329 (PLoS ONE, 2015).)
